Experimental data reported in patent US20230135471A1 (INTEGRATED DNA TECHNOLOGIES, published 2023).
Residue numbers refer to the chain shown, from its start. Names may count otherwise.

B1: E18Y (CM69) (designed binder)
Ubv: MHHHHHHGGSGMLIFVRMLTGKMIELEVYPSDTIENVKAKIQDHEGIPPDQQRLAFQGKSLEDGRTLSDYNILKDPKKMPLLRLR
B2: S57G (CM98) (designed binder)
Ubv: B1 Ubv with Y29E, S68G
B3: N25V (CM72) (designed binder)
Ubv: B1 Ubv with Y29E, N36V
B4: R54Y (CM95) (designed binder)
Ubv: B1 Ubv with Y29E, R65Y
B5: P38C (CM83) (designed binder)
Ubv: B1 Ubv with Y29E, P49C
B6: S65H (CM103) (designed binder)
Ubv: B1 Ubv with Y29E, P76H
B7: I61L (CM101) (designed binder)
Ubv: B1 Ubv with Y29E, I72L
B8: T14D (CM65) (designed binder)
Ubv: B1 Ubv with E25D, Y29E
B9: R42F (CM88) (designed binder)
Ubv: B1 Ubv with Y29E, R53F
B10: D32A (CM78) (designed binder)
Ubv: B1 Ubv with Y29E, D43A
B11: V26I (CM74) (designed binder)
Ubv: B1 Ubv with Y29E, V37I
B12: A44T (CM89) (designed binder)
Ubv: B1 Ubv with Y29E, A55T
B13: K63I (CM102) (designed binder)
Ubv: B1 Ubv with Y29E, K74I
B14: M1H (CM62) (designed binder)
Ubv: B1 Ubv with M12H, Y29E
B15: L73M (CM104) (designed binder)
Ubv: B1 Ubv with Y29E, L84M
B16: E18M (CM68) (designed binder)
Ubv: B1 Ubv with Y29M
B17: E16M (CM66) (designed binder)
Ubv: B1 Ubv with E27M, Y29E
B18: N25E (CM73) (designed binder)
Ubv: B1 Ubv with Y29E, N36E
B19: Q31W (CM76) (designed binder)
Ubv: B1 Ubv with Y29E, Q42W
B20: M1Y (CM63) (designed binder)
Ubv: B1 Ubv with M12Y, Y29E
B21: K33A (CM81) (designed binder)
Ubv: B1 Ubv with Y29E, H44A
B22: E16T (CM67) (designed binder)
Ubv: B1 Ubv with E27T, Y29E
B23: T14H (CM64) (designed binder)
Ubv: B1 Ubv with E25H, Y29E
B24: R74Q (CM105) (designed binder)
Ubv: B1 Ubv with Y29E, R85Q
B25: Q31F (CM77) (designed binder)
Ubv: B1 Ubv with Y29E, Q42F
B26: K33Q (CM80) (designed binder)
Ubv: B1 Ubv with Y29E, H44Q
B27: Q31C (CM75) (designed binder)
Ubv: B1 Ubv with Y29E, Q42C
B28: E18F (CM71) (designed binder)
Ubv: B1 Ubv with Y29F
B29: R42H (CM87) (designed binder)
Ubv: B1 Ubv with Y29E, R53H
B30: E18L (CM70) (designed binder)
Ubv: B1 Ubv with Y29L
B31: K48T (CM90) (designed binder)
Ubv: B1 Ubv with Y29E, K59T
B32: S49M (CM93) (designed binder)
Ubv: B1 Ubv with Y29E, S60M
B33: P38L (CM82) (designed binder)
Ubv: B1 Ubv with Y29E, P49L
B34: K33S (CM79) (designed binder)
Ubv: B1 Ubv with Y29E, H44S
B35: E51D (CM94) (designed binder)
Ubv: B1 Ubv with Y29E, E62D
B36: Q40E (CM84) (designed binder)
Ubv: B1 Ubv with Y29E, Q51E
B37: S49L (CM92) (designed binder)
Ubv: B1 Ubv with Y29E, S60L
B38: CM142, His-tagged (designed binder)
chain: B1 Ubv with M12Y, Y29E, V37I, P49L, A55T, S60L, I72L, K74I, L84M, R85Q
B39: CM131, His-tagged (designed binder)
chain: B1 Ubv with M12Y, Y29E, V37I, I72L, K74I, L84M
B40: CM141, His-tagged (designed binder)
chain: B1 Ubv with Y29E, P49L, A55T, S60L, I72L, K74I, R85Q
B41: CM 145 (designed binder)
Ubv: B1 Ubv with Y29M, N36V, R53H, A55T, K59T, S60L, R65Y, S68G, I72L, K74I
B42: CM 148 (designed binder)
Ubv: MHHHHHHGGSGMLIFVRMLTGKMIELEVMPSDTIEVVKAKIQDHEGIPLDEQHLTFQGTLLDDGYTLGDYNLLIDPKKMPLLRLQ
B43: CM137, His-tagged (designed binder)
chain: B42 Ubv with M12Y, V36N, V37I, L49P, E51Q, H53R, T55A, L60S, Y65R, L84M
B44: CM113, His-tagged (designed binder)
chain: B1 Ubv with Y29E, I72L, K74I
B45: CM143 (designed binder)
Ubv: B42 Ubv with M29E, H53R, T59K, Y65R, G68S
B46: CM147 (designed binder)
Ubv: B42 Ubv with E51Q, D62E
B47: CM134, His-tagged (designed binder)
chain: B1 Ubv with Y29M, K59T, E62D, S68G, I72L, K74I
B48: CM138 (designed binder)
Ubv: B42 Ubv with M12Y, V37I, L49P, H53R, T55A, L60S, Y65R, L84M
B49: CM135, His-tagged (designed binder)
chain: B1 Ubv with E27M, Y29E, N36V, Q51E, S60L, I72L, K74I
B50: CM 146 (designed binder)
Ubv: B42 Ubv with E51Q, D62E, Q85R
B51: CM136, His-tagged (designed binder)
chain: B1 Ubv with M12Y, Y29M, V37I, K59T, E62D, S68G, I72L, K74I, L84M
B52: CM 133 (designed binder)
Ubv: B1 Ubv with Y29E, N36V, Q51E, E62D, I72L, K74I
B53: CM140, His-tagged (designed binder)
chain: B1 Ubv with Y29E, P49L, A55T, S60L, I72L, K74I
B54: CM139, His-tagged (designed binder)
chain: B1 Ubv with Y29E, A55T, S60L, I72L, K74I
B55: CM 132 (designed binder)
Ubv: B1 Ubv with M12Y, Y29E, N36V, V37I, Q51E, E62D, I72L, K74I, L84M
B56: CM 144 (designed binder)
Ubv: B42 Ubv with M12Y, M29E, V37I, H53R, T59K, Y65R, G68S, L84M
B57: CM158 (designed binder)
Ubv: MLIFVRMLTGKMIELEVMPSDTIEVVKAKIQDHEGIPPDQQHLAFQGTSLEDGYTLGDYNLLIDPKKMPLLRLR

molecular target: MBP tagged 53BP1 fragment (a.a. 1484-1603); assay: BLI, fold change Ka of Ubv/Ka of CM1

Binding result, binds:
B1
B2
B3
B4
B5
B6
B7
B8
B9
B10
B11
B12
B13
B14
B15
B16
B17
B18
B19
B20
B21
B22
B23
B24
B25
B26
B27
B28
B29
B30
B31
B32
B33
B34
B35
B36
B37

molecular target: MBP tagged 53BP1 fragment (a.a. 1484-1603); assay: BLI, fold change Ka of Ubv/Ka of CM1; remark: another data set of the same source

Binding result, binds:
B38
B39
B40
B41
B42
B43
B44
B45
B46
B47
B48
B49
B50
B51
B52
B53
B54
B55
B56
B57
